From article PMC4336329 (PLoS ONE, 2015)
The whole screen tested about 310,000 compounds, of which about 2,200 (0.71%) showed an effect of 50% or more. Effects have a minus sign here. Some of the results follow.

Target: human ether-à-go-go-related gene (hERG) potassium channel (human, UniProt Q12809)
Experiment: primary screen, population patch clamp on CHO cells stably expressing hERG

Chain of human ether-à-go-go-related gene (hERG) potassium channel (Q12809 whole entry, looked up): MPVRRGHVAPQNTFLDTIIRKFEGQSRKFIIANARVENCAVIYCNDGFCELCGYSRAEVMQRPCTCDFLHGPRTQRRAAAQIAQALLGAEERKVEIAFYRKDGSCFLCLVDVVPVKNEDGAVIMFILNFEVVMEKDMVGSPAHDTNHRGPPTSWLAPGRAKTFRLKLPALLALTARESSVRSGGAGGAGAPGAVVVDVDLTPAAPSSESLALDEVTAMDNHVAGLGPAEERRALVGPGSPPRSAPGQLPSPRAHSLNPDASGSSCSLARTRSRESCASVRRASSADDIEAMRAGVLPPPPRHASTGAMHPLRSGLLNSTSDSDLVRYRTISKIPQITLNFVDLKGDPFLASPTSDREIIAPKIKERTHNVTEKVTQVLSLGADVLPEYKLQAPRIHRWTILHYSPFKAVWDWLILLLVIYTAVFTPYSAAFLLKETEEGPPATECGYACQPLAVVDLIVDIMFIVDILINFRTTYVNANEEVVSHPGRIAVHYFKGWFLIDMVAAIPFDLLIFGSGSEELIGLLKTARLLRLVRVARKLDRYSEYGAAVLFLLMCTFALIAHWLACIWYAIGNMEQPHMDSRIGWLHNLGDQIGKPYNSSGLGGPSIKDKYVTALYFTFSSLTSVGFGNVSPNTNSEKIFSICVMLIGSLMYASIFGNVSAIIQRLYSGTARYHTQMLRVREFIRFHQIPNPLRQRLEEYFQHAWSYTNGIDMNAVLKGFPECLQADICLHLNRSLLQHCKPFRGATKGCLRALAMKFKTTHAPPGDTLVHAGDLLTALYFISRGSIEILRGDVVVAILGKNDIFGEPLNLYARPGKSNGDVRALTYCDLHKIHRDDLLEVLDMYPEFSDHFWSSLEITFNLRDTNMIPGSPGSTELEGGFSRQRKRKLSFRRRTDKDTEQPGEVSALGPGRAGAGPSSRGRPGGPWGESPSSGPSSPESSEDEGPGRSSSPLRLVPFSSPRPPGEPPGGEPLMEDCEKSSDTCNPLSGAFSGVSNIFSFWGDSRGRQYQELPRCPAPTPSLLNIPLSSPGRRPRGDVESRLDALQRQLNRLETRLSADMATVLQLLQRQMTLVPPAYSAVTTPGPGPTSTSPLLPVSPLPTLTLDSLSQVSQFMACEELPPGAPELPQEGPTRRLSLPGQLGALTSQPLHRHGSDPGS

Row | Structure (SMILES) | hERG current change (%, negative = inhibition) at 1uM
1 | CCCNC(=O)c1nn2c(C(F)(F)F)cc(-c3ccccc3)nc2c1Cl | 3.89%
2 | O=C(NC(=S)NNC(=O)c1ccco1)c1ccc(F)cc1 | 16.8%
3 | C[n+]1cc[nH]c1SCC(=O)c1ccccc1.[Br-] | 3.49%
4 | O=C(Nc1ccc(S(=O)(=O)N2CCCC2)cc1)C1CCN(S(=O)(=O)c2ccc(F)cc2)CC1 | 20.4%
5 | CCCCC[C@H]1CN(C2CCCCC2)C(=O)[C@@H]1CC(=O)NCc1ccc(OC)cc1 | -6.02%
6 | O=C(Cc1cccc(C(F)(F)F)c1)N1CCCC1 | 11.1%
7 | O=C(CSc1ncn[nH]1)c1cc2ccccc2o1 | 5.17%
8 | COc1ccc(-n2nc3c(N4CCC(C(=O)NCc5cccc(C)c5)CC4)nnc(C)c3c2C)cc1 | 13.6%
9 | COc1cc2c(cc1OC)CN(CC(=O)Nc1ccc(Cl)c(S(=O)(=O)N(C)C)c1)CC2 | 6.56%
10 | COc1cc(OC)c(C(=O)OCC(=O)c2cc(C)n(CC3CCCO3)c2C)cc1OC (stereo not drawn) | 11.8%
11 | Cc1cc(Cl)ccc1OCC(O)CNCCc1ccc(S(N)(=O)=O)cc1 (stereo not drawn) | -58.2%
12 | COc1ccc(NCC(=O)n2c(C)c(C)c3ccccc32)cc1 | 10.3%
13 | O=C(C1CC1)N1N=C(c2cccc(Br)c2)CC1(O)C(F)(F)F (stereo not drawn) | 8.35%
14 | CC(=O)Nc1ccc(N2C(=O)CC(N3CCN(Cc4ccc5c(c4)OCO5)CC3)C2=O)cc1 (stereo not drawn) | 13.3%
15 | COc1cc([N+](=O)[O-])ccc1NC(=O)C[n+]1cccc(C(C)=O)c1.[Cl-] | 16.5%
16 | CC1CCCCC12NC(=O)N(CC(=O)Nc1ccccc1N1CCOCC1)C2=O (stereo not drawn) | 2.11%
17 | O=C(NCc1ccco1)C(c1ccccc1)N(C(=O)Cc1cccs1)c1cccnc1 (stereo not drawn) | 5.59%
18 | COc1cc(C(=S)N2CCOCC2)ccc1O | 15.8%
19 | COc1ccccc1NC(=O)C1CCCN1C(=O)Nc1ccc(F)cc1 (stereo not drawn) | 6.23%
20 | COc1ccc(NC(=O)c2ccc3c(c2)CCN3S(=O)(=O)c2ccccc2)c(OC)c1 | 11.4%
21 | CCn1c(C)nc2cc(S(=O)(=O)Nc3ccc(C)cc3)ccc21 | 18.1%
22 | O=C(/C=C/c1ccccc1)c1ccccc1 | 19.2%
23 | COc1ccccc1-c1cc(N)n[nH]1 | 10.2%
24 | Cc1cc(NC(=O)COC(=O)C2CCN(S(=O)(=O)c3c(Cl)cccc3Cl)CC2)no1 | 2.84%
